The antibiotic and cytotoxicity screens of Wong et al. (2023)
The list shows a part of the results.

test system: HepG2; test: cytotoxicity call (relative viability < 0.9); conditions: 10 µM

SMILES | cytotoxicity call
C[C@@H]1CN([C@H](C)CO)C(=O)c2cc(NC(=O)CCCN(C)C)ccc2O[C@H]1CN(C)Cc1ccc(Oc2ccccc2)cc1 | active
CCCN(C)C[C@@H]1OCCCC[C@H](C)Oc2ccc(NC(=O)Cc3ccccc3)cc2C(=O)N([C@H](C)CO)C[C@@H]1C | inactive
C[C@@H]1CCCCO[C@H](CN(C)Cc2ccccc2)[C@@H](C)CN([C@@H](C)CO)C(=O)c2cc(NS(=O)(=O)c3ccccc3)ccc2O1 | inactive
CO[C@@H](C(=O)N(C)C[C@@H]1OCc2ccccc2-c2c(n(C)c3ccccc23)C(=O)N([C@@H](C)CO)C[C@@H]1C)c1ccccc1 | inactive
Cc1cc2nc3c(=O)[nH]c(=O)nc-3n(C[C@H](O)[C@H](O)[C@H](O)CO)c2cc1C | inactive
Cc1o[nH]c(=O)c1CC[C@@H](N)C(=O)O | inactive
Cc1n[nH]c(=O)nc1NC1CC1 | inactive
C[C@@H]1CN([C@H](C)CO)C(=O)c2cc(NC(=O)CCN3CCOCC3)ccc2O[C@@H]1CN(C)C(=O)Nc1ccc(F)cc1 | inactive
Cc1ccc(S(=O)(=O)Nc2cccc3c2O[C@@H](CN(C)S(C)(=O)=O)[C@@H](C)CN([C@H](C)CO)C3=O)cc1 | inactive
C[C@@H]1CN([C@H](C)CO)C(=O)c2cccc(NC(=O)C3CCOCC3)c2O[C@H]1CN(C)C(=O)Nc1ccc2c(c1)OCO2 | inactive
Cc1cc(Cl)cc2sc(N(Cc3ccccn3)C(=O)c3ccc(S(=O)(=O)N4CCCC4)cc3)nc12 | inactive
Cc1ccccc1S(=O)(=O)N1C[C@H](O)COC[C@H]2O[C@@H](CC(=O)NCc3ccccc3Cl)CC[C@@H]21 | inactive
C[C@@H]1CN([C@@H](C)CO)C(=O)c2cc(NC(=O)Cc3ccccc3)ccc2O[C@@H](C)CCCCO[C@H]1CN(C)CC1CCCCC1 | active
Cc1ccc(S(=O)(=O)N(C)C[C@@H]2Oc3ncc(Br)cc3C(=O)N([C@@H](C)CO)C[C@@H]2C)cc1 | inactive
COc1ccc(S(=O)(=O)N(C)C[C@@H]2Oc3ccc(NS(C)(=O)=O)cc3C(=O)N([C@@H](C)CO)C[C@@H]2C)cc1 | inactive
CCCN(C)C[C@@H]1OCCCC[C@@H](C)Oc2ccc(NC(=O)Nc3cccc4ccccc34)cc2C(=O)N([C@H](C)CO)C[C@@H]1C | inactive
C[C@@H]1CCCCO[C@@H](CN(C)S(=O)(=O)c2cn(C)cn2)[C@@H](C)CN([C@@H](C)CO)C(=O)c2cc(NS(=O)(=O)c3cn(C)cn3)ccc2O1 | inactive
C[C@H]1CN([C@@H](C)CO)C(=O)c2cc(C#Cc3ccccn3)cnc2O[C@H]1CN(C)C(=O)CCN1CCCCC1 | inactive
O=C(CN1CCOCC1)N[C@@H]1CC[C@H](CCNC(=O)C2CCC2)O[C@@H]1CO | inactive
C[C@H](CO)N1C[C@H](C)[C@@H](CN(C)C(=O)C2CCCCC2)OCCCC[C@H](C)Oc2ccc(NC(=O)Nc3ccc(F)cc3)cc2C1=O | inactive
C[C@@H]1CCCCO[C@@H](CN(C)C(=O)Nc2ccccc2)[C@@H](C)CN([C@@H](C)CO)C(=O)c2cc(NC(=O)Nc3ccc4c(c3)OCO4)ccc2O1 | inactive
Cc1noc(C)c1S(=O)(=O)Nc1ccc2c(c1)C(=O)N([C@H](C)CO)C[C@H](C)[C@H](CN(C)Cc1ccc(Oc3ccccc3)cc1)O2 | inactive
C[C@H]1CN([C@@H](C)CO)C(=O)c2cc(NC(=O)CCCN(C)C)ccc2O[C@@H]1CN(C)S(=O)(=O)c1ccc(F)cc1 | inactive
Cn1c(=O)c2c(nc(N3CCOCC3)n2CCCN)n(C)c1=O | inactive
C[C@H](CO)N1C[C@H](C)[C@@H](CN(C)C(=O)Nc2ccc3c(c2)OCO3)Oc2ccc(NC(=O)c3ccncc3)cc2C1=O | inactive
COc1cccc(OC)c1NC(=O)N1[C@@H]2CC[C@@H](C2)[C@H]1c1nc2cccc(OCc3ccc(F)cc3)c2[nH]1 | inactive
C[C@@H]1CN([C@@H](C)CO)C(=O)c2cc(NC(=O)Nc3ccc(F)cc3)ccc2O[C@H]1CN(C)S(=O)(=O)c1cn(C)cn1 | inactive
C[C@@H]1CN([C@H](C)CO)C(=O)c2cc(NC(=O)NC3CCCCC3)ccc2O[C@H]1CN(C)S(C)(=O)=O | inactive
c1cc(CN2CCCNCCNCCCNCC2)ccc1CN1CCCNCCNCCCNCC1 | inactive
Cc1ccc(S(=O)(=O)N(C)C[C@@H]2Oc3ccc(NC(=O)c4ccncc4)cc3C(=O)N([C@@H](C)CO)C[C@H]2C)cc1 | inactive
